# Some of the results follow.
# B1: PhoQ; a variant is named by its letters at X, in order, P23837 (parent)
# chain: MKKLLRLFFPLSLRVRFLLATAAVVLVLSLAYGMVALIGYSVSFDKTTFRLLRGESNLFYTLAKWENNKLHVELPENIDKQSPTMTLIYDENGQLLWAQRDVPWLMKMIQPDWLKSNGFHEIEADVNDTSLLLSGDHSIQQQLQEVREDDDDAEMTHSVAVNVYPATSRMPKLTIVVVDTIPVELKSSYMVWSWFIYVLSANLLLVIPLLWVAAWWSLRPIEALAKEVRELEEHNRELLNPATTRELTSLVRNLNRLLKSERERYDKYRTTLTDLTHSLKTPLXXLQXXLRSLRSEKMSVSDAEPVMLEQISRISQQIGYYLHRASMRGGTLLSRELHPVAPLLDNLTSALNKVYQRKGVNISLDISPEISFVGEQNDFVEVMGNVLDNACKYCLEFVEISARQTDEHLYIVVEDDGPGIPLSKREVIFDRGQRVDTLRPGQGVGLAVAREITEQYEGKIVAGESMLGGARMEVIFGRQHSAPKDE
# Variants of: B1
# Experiment: enrichment ratio after two sorts for PhoP signalling (ratio (wild type AVST 3.29)); higher = more functional
# Settings: with PhoP (E. coli)
row,Variant,enrichment ratio
1,KLCH,≤ 0.25
2,LHPR,≤ 0.25
3,SEEN,≤ 0.25
4,ISSG,≤ 0.25
5,RKAV,≤ 0.25
6,VWMG,≤ 0.25
7,KEIW,≤ 0.25
8,GQWA,≤ 0.25
9,VQRR,≤ 0.25
10,PQSC,≤ 0.25
11,PKIH,≤ 0.25
12,GQSC,≤ 0.25
13,YLAW,≤ 0.25
14,IGHM,≤ 0.25
15,QTPM,≤ 0.25
16,SPKN,≤ 0.25
17,PKFA,≤ 0.25
18,VSVR,≤ 0.25
19,YRDL,≤ 0.25
20,DRFP,≤ 0.25
21,NETK,≤ 0.25
22,HARP,≤ 0.25
23,MFRE,≤ 0.25
24,ICKE,≤ 0.25
25,HRNS,≤ 0.25
26,QTCI,≤ 0.25

row,Variant,enrichment ratio
1,GSCF,11.5
2,NNHP,≤ 0.25
3,KHNH,≤ 0.25
4,QMSH,7.1
5,AMLP,≤ 0.25
6,IADH,≤ 0.25
7,SFKW,≤ 0.25
8,VCKC,≤ 0.25
9,FNFN,≤ 0.25
10,DHCP,≤ 0.25
11,EAVS,≤ 0.25
12,NEGN,≤ 0.25
13,FQRH,≤ 0.25
14,NHDK,≤ 0.25
15,NLLA,≤ 0.25
16,HKCR,≤ 0.25
17,THGR,≤ 0.25
18,KYTC,≤ 0.25
19,TLMI,0.678
20,NGAL,≤ 0.25
21,ILEI,≤ 0.25
22,PHIG,≤ 0.25
23,NADT,≤ 0.25
24,QPGF,≤ 0.25
25,PNER,≤ 0.25
26,QAGR,≤ 0.25

row,Variant,enrichment ratio
1,TFVL,0.29
2,RRLV,≤ 0.25
3,TKNR,≤ 0.25
4,TYTW,≤ 0.25
5,KLHD,≤ 0.25
6,LPYW,≤ 0.25
7,IIYQ,≤ 0.25
8,GQCY,≤ 0.25
9,NYIT,≤ 0.25
10,FLNI,≤ 0.25
11,ERMQ,≤ 0.25
12,DVVD,≤ 0.25
13,WFVR,≤ 0.25
14,WLKN,≤ 0.25
15,DELL,≤ 0.25
16,KGQG,≤ 0.25
17,MLKK,≤ 0.25
18,SQVK,≤ 0.25
19,YMES,≤ 0.25
20,QTAQ,6.08
21,GSVR,≤ 0.25
22,NHLV,≤ 0.25
23,VCWY,≤ 0.25
24,VRCK,≤ 0.25
25,SCMH,4.11
26,GTVC,≤ 0.25

row,Variant,enrichment ratio
1,PSKS,≤ 0.25
2,MMTA,≤ 0.25
3,DMYI,≤ 0.25
4,PKFE,≤ 0.25
5,CLIC,≤ 0.25
6,PSEK,≤ 0.25
7,AGAV,1.8
8,MQRR,≤ 0.25
9,WLHY,≤ 0.25
10,LCMS,≤ 0.25
11,IICN,≤ 0.25
12,VMAT,≤ 0.25
13,SLME,2.88
14,NINI,≤ 0.25
15,QKVA,≤ 0.25
16,GKYP,≤ 0.25
17,NWEF,≤ 0.25
18,DADR,≤ 0.25
19,DDNW,≤ 0.25
20,NTHG,≤ 0.25
21,RHWD,≤ 0.25
22,DTLS,≤ 0.25
23,RCKR,≤ 0.25
24,DMMS,≤ 0.25
25,TSHV,13.7
26,YITM,0.387

row,Variant,enrichment ratio
1,KVSV,≤ 0.25
2,TSSS,14
3,WIPF,≤ 0.25
4,KMSV,≤ 0.25
5,AHHV,≤ 0.25
6,ESMC,≤ 0.25
7,HPTM,≤ 0.25
8,EGIW,≤ 0.25
9,MEIP,≤ 0.25
10,HQEL,≤ 0.25
11,SAIC,2.13
12,VYAC,≤ 0.25
13,YKAQ,≤ 0.25
14,PYPM,≤ 0.25
15,QGFW,≤ 0.25
16,KFGA,≤ 0.25
17,GQPS,≤ 0.25
18,IHKY,≤ 0.25
19,DGAL,≤ 0.25
20,FDTK,≤ 0.25
21,IHYR,≤ 0.25
22,RMCT,≤ 0.25
23,DRWI,≤ 0.25
24,DFHQ,≤ 0.25
25,APDL,≤ 0.25
26,PCLG,≤ 0.25

row,Variant,enrichment ratio
1,IFDC,≤ 0.25
2,RRAC,≤ 0.25
3,GPWY,≤ 0.25
4,YLKR,≤ 0.25
5,SLAT,≤ 0.25
6,RPMV,≤ 0.25
7,LAQE,≤ 0.25
8,LSWM,2.98
9,KQNV,≤ 0.25
10,IWTK,≤ 0.25
11,HINS,≤ 0.25
12,SGIT,5.85
13,IHPR,≤ 0.25
14,KSVN,≤ 0.25
15,RDFQ,≤ 0.25
16,HPPM,≤ 0.25
17,HMFP,≤ 0.25
18,PQHK,≤ 0.25
19,PDQM,≤ 0.25
20,TWIT,≤ 0.25
21,EERY,≤ 0.25
22,GTCQ,13.4
23,DHQS,≤ 0.25

# — a collection of fitness landscapes (doi:10.1126/science.1257360)
